Source: publication PMC4336329 (PLoS ONE, 2015)
The campaign covered roughly 310,000 compounds. About 2,200 (0.71%) showed an effect of 50% or more. The effect is printed as a negative number. Some of the results follow.

Target: human ether-à-go-go-related gene (hERG) potassium channel (human, UniProt Q12809)
Test: primary screen, population patch clamp on CHO cells stably expressing hERG

Sequence of human ether-à-go-go-related gene (hERG) potassium channel (Q12809 whole entry, looked up): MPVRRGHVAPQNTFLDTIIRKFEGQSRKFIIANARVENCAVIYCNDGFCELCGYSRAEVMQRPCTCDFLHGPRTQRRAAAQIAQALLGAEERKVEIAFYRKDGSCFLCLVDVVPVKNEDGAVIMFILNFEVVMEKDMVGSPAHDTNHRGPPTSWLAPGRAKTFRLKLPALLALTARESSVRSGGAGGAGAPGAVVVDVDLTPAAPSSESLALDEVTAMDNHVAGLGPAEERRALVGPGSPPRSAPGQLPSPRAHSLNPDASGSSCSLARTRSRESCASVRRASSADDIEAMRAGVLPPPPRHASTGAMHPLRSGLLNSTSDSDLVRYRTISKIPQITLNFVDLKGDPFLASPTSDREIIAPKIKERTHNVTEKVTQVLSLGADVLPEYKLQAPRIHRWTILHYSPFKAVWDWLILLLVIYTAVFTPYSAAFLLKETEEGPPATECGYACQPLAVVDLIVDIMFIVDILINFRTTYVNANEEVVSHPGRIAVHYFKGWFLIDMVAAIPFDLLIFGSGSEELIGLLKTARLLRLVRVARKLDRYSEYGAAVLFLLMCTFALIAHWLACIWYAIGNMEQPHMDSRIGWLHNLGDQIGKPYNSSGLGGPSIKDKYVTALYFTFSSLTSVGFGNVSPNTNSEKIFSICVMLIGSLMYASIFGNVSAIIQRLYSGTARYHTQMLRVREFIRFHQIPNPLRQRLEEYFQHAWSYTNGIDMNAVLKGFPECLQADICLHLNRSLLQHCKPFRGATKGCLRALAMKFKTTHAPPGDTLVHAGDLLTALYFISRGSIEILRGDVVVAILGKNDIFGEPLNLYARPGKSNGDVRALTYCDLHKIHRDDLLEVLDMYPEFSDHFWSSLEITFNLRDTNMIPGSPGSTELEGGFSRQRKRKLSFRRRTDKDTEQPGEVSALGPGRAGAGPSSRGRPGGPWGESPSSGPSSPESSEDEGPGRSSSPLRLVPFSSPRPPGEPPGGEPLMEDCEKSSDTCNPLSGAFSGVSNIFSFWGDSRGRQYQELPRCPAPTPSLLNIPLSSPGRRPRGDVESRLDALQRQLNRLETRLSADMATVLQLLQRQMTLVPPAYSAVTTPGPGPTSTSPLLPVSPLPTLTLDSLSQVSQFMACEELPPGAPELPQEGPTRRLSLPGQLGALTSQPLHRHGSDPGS

Structure (SMILES) | hERG current change (%, negative = inhibition) at 1uM [%]
C/C(=N\Nc1ccc(F)cc1F)c1ccc(N2CCOCC2)cc1 | 10.8
OCC[C@@H]1C[C@H](O)[C@@H](O)[C@]2(CCc3ccccc3CO2)O1 | 12.7
CC(/C=C/c1ccco1)=N/NC(=O)OC(C)(C)C | 11.6
CCc1nnc(NC(=O)CCC(=O)N2CCN(S(=O)(=O)c3cc(Cl)ccc3OC)CC2)s1 | 5.75
Cl.NC1=NC2(CCCCC2)N(c2ccc(F)cc2)C(N)=N1 | 2.96
COc1cc(/C(C)=N/N2CCN(Cc3ccc(C)cc3)CC2)ccc1O | -3.97
COc1ccc(NC(=O)c2cc(NC(=O)C3CCCCC3C(=O)O)ccc2N2CCOCC2)cc1 (centres unmarked) | -2.19
Cc1cccc(OCCSCc2nc3ccccc3[nH]2)c1 | 12.1
COc1ccccc1NC(=O)CCn1c(=O)c2cccn2c2ccccc21 | 12.4
FC(F)(F)c1nc(NCC2CCCO2)c2nnn(Cc3ccccc3Cl)c2n1 (centres unmarked) | 10.6
Cc1ccc(C(=O)NC(=S)Nc2cccc3c(C)cc(C)nc23)cc1 | 12.1
Cc1cc(C)nc(SCc2nnc(SCC(=O)Nc3c(C)cccc3C)o2)n1 | 5.52
O=C(CSc1ccc(-c2cccnc2)nn1)N1CCCCCC1 | 19.9
CC(C)N(C(=O)CSc1nc2ccccc2n1Cc1ccc(F)cc1)C(C)C | 3.06
O=C(O)COCC(=O)N1CCCN(c2ccc(C(F)(F)F)cn2)CC1 | 8.76
O=C(CNC(=O)c1ccco1)Nc1ccc(F)c(Cl)c1 | 15.7
CCN1C(=O)c2cccc3c(S(=O)(=O)Nc4ccccc4O)ccc1c23 | 14.7
CS(=O)(=O)c1ccc(C(=O)Nc2ccc(-c3nc4ccccc4[nH]3)cc2)cc1 | 4.62
CC12CCC(C(=O)NNc3ccc([N+](=O)[O-])cc3)(OC1=O)C2(C)C (centres unmarked) | 8.53
Cc1cccc(NC(=O)CCc2c(C)nn(-c3ccc(N4CCCCC4)nn3)c2C)c1 | 6.16
Cc1ccccc1CNC(=O)CCn1nc(C)c2c(C)n(-c3ccccc3)nc2c1=O | 2.24
Cc1[nH]n(-c2nc(-c3ccc(Cl)cc3)cs2)c(=O)c1N=Nc1ccc(O)cc1 | 15.9

Structure (SMILES) | hERG current change (%, negative = inhibition) at 1uM [%]
Cc1ccc2nc3c(c(C(=O)OC4CCOC4=O)c2c1)CCCC3 (centres unmarked) | 7.73
COCCc1nnc(NC(=O)C(C)C)s1 | 9.63
O=C(Nc1nc2ccccc2s1)Nc1ccc([N+](=O)[O-])cc1Cl | 19.7
CCC(C)NS(=O)(=O)c1ccc(S(=O)(=O)Nc2cc3c(cc2C(C)=O)OCO3)cc1 (centres unmarked) | 11.3
CCOC(=O)C(CC)(CC)C(=O)/C=C/c1ccc(OC)cc1 | 4.41
COc1ccc(NC(=O)c2cccc(NC(=O)c3ccccc3)c2)c(OC)c1 | 11.5
COc1ccccc1CNC(=O)C(c1ccccc1)c1ccccc1 | 15.9
OC(CNCCc1ccc(C(F)(F)F)cc1)COc1ccc2ccccc2c1 (centres unmarked) | -9.24
Cc1ccc(Cl)cc1NC(=S)N(CCCN1CCOCC1)Cc1ccccn1 | -0.469
CN(C)S(=O)(=O)c1cccc(NC(=S)NCCCn2ccnc2)c1 | 12.2
CC(C)=CC(=O)OCC(=O)Nc1cc(C)ccc1C | 4.51
CC(=O)Oc1c(C)c(C)c2c(c1C)CCC(C)(CCCC(C)CCCC(C)CCCC(C)C)O2 (centres unmarked) | 4.27
CC(C)NC(=O)NC(=O)COC(=O)c1ccccc1Oc1ccccc1 | 6.23
O=C1Cc2ccccc2Sc2ccc(O)cc21 | 14.2
COc1ccc(NS(=O)(=O)c2cc(NC(=O)c3nn(C)c(=O)c4ccccc34)ccc2OC)cc1 | 4.74
CCCCCc1cc(=O)oc2c(C(CCN3CCCC(C)C3)c3ccc(N(C)C)cc3)c(OC)cc(OC)c12 (centres unmarked) | 11.4
CC(=O)C1=C(C)N(Cc2ccccc2)C(=O)N[C@H]1c1ccco1 | 12.2
O=C(OCC(=O)N1CCc2ccccc2C1)c1cccnc1Cl | 12.2
Cc1ccc(C(C(=O)NC2CCCC2)N(Cc2ccc3c(c2)OCO3)C(=O)Cc2cccs2)cc1 (centres unmarked) | 4.88
CC(C)NC(=O)CCNC(=O)c1ccc(F)cc1 | 5.11
O=c1c2ccccc2[nH]c(=S)n1CCCn1ccnc1 | 11.1
CC(C)=CCN1CCN(C/C(Cl)=C/c2ccccc2)CC1CCO (centres unmarked) | 8.56
